Screen size: about 110,000 compounds; about 230 (0.21%) showed an effect of 50% or more. The list shows a part of the results.
Each compound was assayed against DPAP1 (Plasmodium falciparum, UniProt Q8IIJ9) (assay: primary screen, percent inhibition; read by cleavage of a fluorogenic dipeptide substrate; higher = more effect of the substance).
Sequence of DPAP1 (Q8IIJ9 whole entry, looked up): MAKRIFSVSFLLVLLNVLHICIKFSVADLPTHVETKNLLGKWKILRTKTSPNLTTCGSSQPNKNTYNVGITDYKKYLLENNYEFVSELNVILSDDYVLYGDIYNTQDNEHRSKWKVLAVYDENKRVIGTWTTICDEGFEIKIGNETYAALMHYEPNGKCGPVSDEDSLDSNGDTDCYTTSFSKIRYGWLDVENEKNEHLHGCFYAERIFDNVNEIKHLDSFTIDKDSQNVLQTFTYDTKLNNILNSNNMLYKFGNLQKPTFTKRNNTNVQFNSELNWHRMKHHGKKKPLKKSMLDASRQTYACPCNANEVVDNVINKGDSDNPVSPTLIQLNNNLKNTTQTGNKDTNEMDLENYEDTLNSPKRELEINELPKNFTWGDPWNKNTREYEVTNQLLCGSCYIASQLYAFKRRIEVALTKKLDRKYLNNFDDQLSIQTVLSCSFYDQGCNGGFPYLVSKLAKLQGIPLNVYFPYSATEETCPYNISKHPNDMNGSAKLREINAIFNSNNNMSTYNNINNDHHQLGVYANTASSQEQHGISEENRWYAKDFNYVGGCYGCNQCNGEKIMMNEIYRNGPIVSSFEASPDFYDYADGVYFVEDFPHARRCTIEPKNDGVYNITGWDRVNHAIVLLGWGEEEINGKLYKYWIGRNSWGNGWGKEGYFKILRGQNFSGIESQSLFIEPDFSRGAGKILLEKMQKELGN
Parameters: species or system P. falciparum D10 trophozoite lysates; single well
`COc1ccc2[nH]c3c(c2c1)CCNC3c1cc(OC)c(OC)c(OC)c1` (centres unmarked) was tested, and the “% Inhibition @ 10 uM” value was -4.93%. With `CN(CCNC(=O)c1cc2ccc3cccnc3c2[nH]1)C1CCCCC1` the “% Inhibition @ 10 uM” value was 5.73%. With `Cc1ccc(S(=O)(=O)Nc2ccnc(C(=O)Nc3nc4ccc(C)cc4s3)c2)cc1` the “% Inhibition @ 10 uM” value was -2.19%. With `CCOC(=O)C1=C(C)N=c2s/c(=C\c3ccco3)c(=O)n2C1c1ccccc1` (centres unmarked) the “% Inhibition @ 10 uM” value was 3.05%. `COc1ccc(C2=NN3C(C2)c2ccccc2OC32CCC(C)CC2)cc1OC` (centres unmarked) was tested, and the “% Inhibition @ 10 uM” value was -3.14%. With `COCCCNc1sc(S(=O)(=O)c2ccc(C)cc2)nc1S(=O)(=O)c1ccc(C)cc1` the “% Inhibition @ 10 uM” value was 5.5%. For `Cc1ccccc1S(=O)(=O)Cc1ccc(C(=O)N2CCN(c3ncccn3)CC2)o1`, the “% Inhibition @ 10 uM” value was 3.93%. With `CCOc1cc2c(cc1/C=C1/SC(Nc3cccc(C)c3)=NC1=O)OCO2` the “% Inhibition @ 10 uM” value was 0.851%. In the case of `CCc1ccccc1NC(=O)CN1CCCC(C)C1` (centres unmarked), the “% Inhibition @ 10 uM” value is reported as 2.76%. `COCCNC(=O)C1=C(C)C(=O)OC12CCN(C(C)=O)CC2` was tested, and the “% Inhibition @ 10 uM” value was -0.769%. In the case of `CCCC1CCc2c(sc(NC(=O)c3ccc(Br)o3)c2C(N)=O)C1` (centres unmarked), the “% Inhibition @ 10 uM” value is reported as 0.189%. For `Cc1cccc(NC(=O)c2cccc3c2C(=O)c2ccccc2-3)c1`, the “% Inhibition @ 10 uM” value was 3.1%. `Cc1[nH]nc2c1C(c1ccc(OCc3cccc(F)c3)cc1)C(C#N)=C(N)O2` (centres unmarked) was tested, and the “% Inhibition @ 10 uM” value was -3.46%. For `COc1ccc(/C(O)=C/C=N/c2cc(Cl)ccc2Cl)cc1`, the “% Inhibition @ 10 uM” value was -0.725%. With `CCO/C(O)=C1\C(C)=NC(=S)NC1c1ccc(Cl)cc1Cl` (centres unmarked) the “% Inhibition @ 10 uM” value was -0.597%. `COc1cc2ncc(C(=O)c3ccccc3)c(N3CCCCC3)c2cc1OC` was tested, and the “% Inhibition @ 10 uM” value was -1.53%. `CCn1nc(C)c(N2C(=O)c3cccc4c(Br)ccc(c34)C2=O)c1C` was tested, and the “% Inhibition @ 10 uM” value was 2.09%. For `CN1CCC(N2CCCC(C(N)=O)C2)CC1` (centres unmarked), the “% Inhibition @ 10 uM” value was 1.43%. With `COc1ccc(CN2CCN(c3cccc(C(F)(F)F)c3)CC2)c(OC)c1` the “% Inhibition @ 10 uM” value was 3.1%. `CC(=O)c1cccc(NC(=O)c2cccs2)c1` was tested, and the “% Inhibition @ 10 uM” value was -2.28%. For `N#CCNC(=O)C(NC(=O)c1ccccc1)SC1CCCCC1` (centres unmarked), the “% Inhibition @ 10 uM” value was -1.83%. With `CCN(CCN(C)C)Cc1ccc(Cl)c(Cl)c1` the “% Inhibition @ 10 uM” value was 1.62%. With `NC(=O)C1CCCN(CC(c2ccccc2)c2ccccc2)C1` (centres unmarked) the “% Inhibition @ 10 uM” value was 2.1%. With `COc1ccccc1CCNC(=O)c1nc(CS(=O)(=O)c2ccccc2)no1` the “% Inhibition @ 10 uM” value was 5.45%. `COc1ccc(NC(=O)Nc2ccccc2C(F)(F)F)cc1` was tested, and the “% Inhibition @ 10 uM” value was -5.65%. `CN1C2CCC1CC(NCCN1CCOCC1)C2` (centres unmarked) was tested, and the “% Inhibition @ 10 uM” value was -0.0908%. With `Cc1ccc2c(c1)c1c(n2C)C(C(N)=O)CCC1` (centres unmarked) the “% Inhibition @ 10 uM” value was -1.69%. In the case of `CCOC(=O)N1CCN(c2ncnc3c2c(-c2ccccc2)cn3-c2ccccc2)CC1`, the “% Inhibition @ 10 uM” value is reported as 0.925%. In the case of `CC1(C)CC(=O)C2=C(C1)N(c1cccnc1)C(N)=C(C#N)C2c1ccc(C(F)(F)F)cc1` (centres unmarked), the “% Inhibition @ 10 uM” value is reported as 0.674%. `O=C(Nc1ccc2oc(-c3ccc(Cl)cc3Cl)nc2c1)c1cccc2ccccc12` was tested, and the “% Inhibition @ 10 uM” value was -0.771%. For `COc1ccc(Cc2nn3c(-c4ccc(F)cc4)nnc3s2)cc1`, the “% Inhibition @ 10 uM” value was 2.89%. In the case of `COc1ccccc1/C=C1N=C(/C=C/c2ccccc2OC)OC\1=O`, the “% Inhibition @ 10 uM” value is reported as 13.2%. In the case of `CCn1cc(/C=C(\NC(=O)c2cc(OC)c(OC)c(OC)c2)C(=O)NCCO)c2ccccc21`, the “% Inhibition @ 10 uM” value is reported as 1.64%. `CC(C)=CCCCCCCN(C)CCc1ccccn1` was tested, and the “% Inhibition @ 10 uM” value was -0.292%. In the case of `CCc1c(C)sc(NC(=O)Nc2ccc(Cl)c(Cl)c2)c1C(N)=O`, the “% Inhibition @ 10 uM” value is reported as -1.88%. With `CC(=O)c1ccccc1NC(=O)C1CCC(C(=O)Nc2ccccc2C(C)=O)S1` (centres unmarked) the “% Inhibition @ 10 uM” value was -1.91%. `CCOc1cc(C(=O)N2CCC3(CC2)N=C(c2ccc(Cl)cc2)C(=O)N3)cc(OCC)c1OCC` was tested, and the “% Inhibition @ 10 uM” value was 18.4%. `CC(C)OP(=O)(OC(C)C)C(Nc1ccc2ccccc2c1)c1ccccc1` (centres unmarked) was tested, and the “% Inhibition @ 10 uM” value was 4.12%. In the case of `CC1(C)CNC(C)(C)C2c3ccccc3NC21` (centres unmarked), the “% Inhibition @ 10 uM” value is reported as -1.88%. In the case of `CCN1CCC(N2CCCC(C(=O)N(CC)CC)C2)CC1` (centres unmarked), the “% Inhibition @ 10 uM” value is reported as 2.7%. For `Cc1ccc(S(=O)(=O)N(CC(=O)N2CCCCCC2)Cc2ccc(Br)cc2)cc1`, the “% Inhibition @ 10 uM” value was 1.86%. With `CCN(CC)C(=O)C1=C(C)N=C(S)NC1c1c(F)cccc1Cl` (centres unmarked) the “% Inhibition @ 10 uM” value was -2.72%. For `CCc1ccc(CN2CCN(C(=O)c3cc(OC)cc(OC)c3)CC2)cc1`, the “% Inhibition @ 10 uM” value was -2.87%. `O=S(=O)(c1ccc(-c2cs/c(=N\c3ccccc3)n2CCN2CCOCC2)cc1)N1CCCC1` was tested, and the “% Inhibition @ 10 uM” value was 3.45%. In the case of `Cc1ccccc1C1NC(c2ccccc2C)C(C)C(=O)C1C` (centres unmarked), the “% Inhibition @ 10 uM” value is reported as 5.75%. `COc1cc(/C=C/c2nc(C#N)c(NCCCn3ccnc3)o2)cc(OC)c1OC` was tested, and the “% Inhibition @ 10 uM” value was 0.895%. In the case of `CC1=C(C(=O)Nc2cccnc2)C(c2ccc(C#N)cc2)n2nc(CCCO)nc2N1` (centres unmarked), the “% Inhibition @ 10 uM” value is reported as -1.16%. With `Cc1nn(C(C)C(=O)NC(C)C)c(=O)c2nn(-c3ccccc3)c(C)c12` (centres unmarked) the “% Inhibition @ 10 uM” value was 3.66%. With `N#C/C(=C/c1ccc(-c2ccc(C(N)=O)cc2)o1)c1nc2ccccc2[nH]1` the “% Inhibition @ 10 uM” value was -0.941%. `O=C(O)CCc1ccc(-c2ccc(F)cc2)n1NC(=O)c1ccccc1Br` was tested, and the “% Inhibition @ 10 uM” value was -0.169%. For `CC/N=C1\S/C(=C/c2cc3c(cc2OCC)OCO3)C(=O)N1CC`, the “% Inhibition @ 10 uM” value was 0.727%. In the case of `CCOC(=O)c1sc(NC(=O)CCN2CCCCC2)c(C(=O)OCC)c1C`, the “% Inhibition @ 10 uM” value is reported as 0.565%. `O=C(NC(c1ccccc1)c1ccccc1)c1cc2ccccc2oc1=O` was tested, and the “% Inhibition @ 10 uM” value was -4.35%. For `CC(C)Oc1ccc(CNC(=O)c2cc3oc4ccccc4c3n2C)cc1`, the “% Inhibition @ 10 uM” value was -7.02%. In the case of `CCOc1ccc(CN(C(=O)c2nc(S(C)(=O)=O)ncc2Cl)C2CCS(=O)(=O)C2)cc1` (centres unmarked), the “% Inhibition @ 10 uM” value is reported as -1.11%. With `Cc1nnc(N2CCC(C(=O)NCc3cccnc3)CC2)c2nn(-c3ccccc3)c(C)c12` the “% Inhibition @ 10 uM” value was -4.57%. With `c1cnc2c(Cc3c[nH]c4cccnc34)c[nH]c2c1` the “% Inhibition @ 10 uM” value was 0.266%. For `CCC(C)C(=O)Nc1ccc(NC(=O)c2cccs2)cc1` (centres unmarked), the “% Inhibition @ 10 uM” value was 0.512%. `CCCCC(=O)Nc1sc2c(c1C#N)CC(C)(C)NC2(C)C` was tested, and the “% Inhibition @ 10 uM” value was 0.726%. With `O=P(O)(O)Cc1ccccc1OP(=O)(c1ccccc1)c1ccccc1` the “% Inhibition @ 10 uM” value was -1.93%. `CS(=O)(=O)c1nc(S(=O)(=O)c2ccc(Cl)cc2)c(NCCCN2CCCC2=O)s1` was tested, and the “% Inhibition @ 10 uM” value was 1.15%. `COc1ccc(C(CC(=O)O)NC(=O)c2ccc(F)cc2)cc1` (centres unmarked) was tested, and the “% Inhibition @ 10 uM” value was 3.6%.

— publication PMC6919601, “Identification of Plasmodium dipeptidyl aminopeptidase allosteric inhibitors by high throughput screening” (PLoS ONE, 2019)
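Also: 30 min substrate incubation versus DMSO and 10 µM JCP410 controls.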
